In PubChem BioAssay AID686970 (National Center for Advancing Translational Sciences (NCATS), 2013):
Among all 360,000 compounds or so, about 6,000 (1.7%) were called active. This list was built around the results that the source calls inconclusive (neither active nor inactive); the mix of calls is not that of the screen. Calls follow the shape of the dose curve; as a rule, active = well fitted cell-killing curve with a large enough effect; inconclusive = small, poorly fitted or top-dose-only effect, or effect the other way; inactive = flat fitted curve, though single readings scatter. No potency is given beside an inconclusive call; the fits are too rough.

Experiment: qHTS for induction of synthetic lethality in tumor cells producing 2HG: qHTS for the HT-1080-NT fibrosarcoma cell line;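 also: NT is the 2HG producing partner of a matched IDH1 knockdown line; nearly all actives have a fitted effect of over 55% in size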;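 as to activity, negative = less viability: 0% = DMSO-treated cells and -100% = media-only wells without cells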
Conditions: HT-1080-NT fibrosarcoma viability, CellTiter-Glo ATP luminescence, 48 h; activity, negative = less viability: at 46.1 µM (top of the series) unless noted
Outline: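 Toxicity toward the 2HG-producing NT line was scored as %Activity, normalised to DMSO and no-cell wells, from CellTiter-Glo luminescence after 48 hours' treatment.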
Potency is read from the fitted curve at half-maximal effect; tags tell the direction and shape of the fitted curve.

SMILES | activity, negative = less viability | Potency
C[C@@H]1C(=O)O[C@H]2C[C@@]34[C@H]5C[C@@H](C(C)(C)C)[C@]36[C@@H](OC(=O)[C@@H]6O)O[C@@]4(C(=O)O5)[C@]21O | inactive: 0.896% | –
COC(=O)c1ccc(S(=O)(=O)N2CCc3ccccc32)cc1 | – | inconclusive [cytotoxic, partial curve]
CN(C)S(=O)(=O)c1cccc(NC(=O)c2ccc(COc3ccccc3)cc2)c1 | – | inconclusive [cytotoxic, partial curve, poor fit]
O=[N+]([O-])c1cc(/C=N/Nc2nc3ccccc3[nH]2)c(O)cc1O | – | inconclusive [cytotoxic, full curve]
CCCCC(CCC(=O)Nc1nccs1)C(=O)O (stereo not drawn) | inactive: 14% | –
O=C(/C=C/c1cn(-c2ccccc2)nc1-c1cccs1)NCCN1CCOCC1 | – | inconclusive [cytotoxic, single point]
Cc1ccc(NC(=O)C2CCN(S(=O)(=O)c3ccc4c(c3)NC(=O)C(C)S4)CC2)cc1Cl (stereo not drawn) | inconclusive: 4.76% [cytotoxic] | –
Cc1csc2nc(NC(=O)c3ccccc3)sc(=O)c12 | – | inconclusive [cytotoxic, single point]
CC(=O)c1ccc(N2CCC(c3cc(-c4ccc(Cl)cc4Cl)n[nH]3)CC2)c([N+](=O)[O-])c1 | – | active: 14.1 µM
Cc1cc(NC(=O)NC(=O)c2ccccc2NC(=O)CN)ccc1Oc1ncc(Br)cn1 | – | active: 0.517 µM
Cc1cccc(N2CCN(CC(=O)NCc3ccc(Cl)cc3)CC2)c1C | inactive: -16.3% | –
O=C(NC1CCCCC1)c1ccc([N+](=O)[O-])o1 | – | inconclusive [cytotoxic, partial curve]
CCCOc1ccc(/C=N/Nc2cccc([N+](=O)[O-])c2)c(O)c1 | – | active: 14.6 µM
CC1Cc2cc(S(=O)(=O)N3CCCCC3C)ccc2N1C(=O)C1CCC1 (stereo not drawn) | – | inconclusive [cytotoxic, single point]
CCN(CC)c1c(C)nc2ccc(C(=O)Nc3cc(-c4ccccc4)ccc3OC)cn12 | – | inconclusive [cytotoxic, single point]
c1ccc(COc2ccc(CNCc3cccs3)cc2)cc1 | – | inconclusive [cytotoxic, single point]
COC(=O)[C@@]12C[C@@H](CC(=O)NCC3CCCCC3)C(=O)N(Cc3ccc4c(c3)OCO4)C1=CCC(C)(C)C2 | – | inconclusive [cytotoxic, single point]
Cc1ccccc1CNc1ccc(C(CC(N)=O)NC(=O)c2ccc(Br)cc2)cc1[N+](=O)[O-] (stereo not drawn) | – | inconclusive [cytotoxic, single point]
CC(=O)N1c2ccc(S(=O)(=O)NCCC(=O)Nc3ncccc3C)cc2CC1C (stereo not drawn) | inactive: 1.81% | –
O=C(Nc1ccccc1F)c1cc(C(=O)Nc2ccccc2F)cc([N+](=O)[O-])c1 | inactive: 10.7% | –
Cc1c(NC(=O)c2ccc3c(c2)OCO3)cccc1-c1nc2ncccc2o1 | inconclusive: 13% | –
Cc1cc(/C=N/N2CCN(C)CC2)c(C)n1-c1ccc(Cl)cc1 | – | inconclusive [cytotoxic, partial curve]
CCOC(=O)N1CCN(C(=O)COc2ccc(S(=O)(=O)NC3CCCCC3)cc2C)CC1 | inactive: -11% | –

SMILES | activity, negative = less viability | Potency
O=c1c(-c2ccccc2)c[nH]n1-c1cccc([N+](=O)[O-])c1 | – | inconclusive [cytotoxic, single point]
Cc1ccc(NC(=O)/C=C/c2ccc([N+](=O)[O-])s2)c(C)c1 | – | active: 2.59 µM
CC(CC(=O)N(CCC1=CCCCC1)c1c(N)n(Cc2ccccc2)c(=O)[nH]c1=O)c1ccccc1 (stereo not drawn) | – | inconclusive [cytotoxic, single point]
O=C(N/N=C/c1ccc2c(c1)OCO2)c1ccc(NC(=O)c2ccc(F)cc2)cc1 | – | inconclusive [cytotoxic, full curve, poor fit]
COc1cccc(C(=O)N2c3cc(C)ccc3OCC2C(C)(C)C)c1 (stereo not drawn) | – | inconclusive [rising, single point]
COc1cc(OC)cc(-c2c(-c3cccs3)c3cc(-c4ccc(OC)c(OC)c4)ccc3n2C)c1 | – | inconclusive [rising, partial curve]
O=C(C[C@H]1C/C=C\CC[C@H](Cc2ccc(F)cc2)C(=O)O[C@@H](c2ccccc2)CNC1=O)N[C@@H](CO)Cc1ccccc1 | – | inconclusive [cytotoxic, single point]
CCOC(=O)C1=C(N)OC2=C(C(=O)CCC2)C1c1ccc(C)s1 (stereo not drawn) | inactive: 5.46% | –
CC(=O)c1cn(CC(=O)Nc2ccc(C)c(C)c2)c2ccccc12 | inactive: 1.77% | –
Cc1cccc(N2CCN(S(=O)(=O)c3ccc4c(c3)NC(=O)CS4)CC2)c1C | – | inconclusive [cytotoxic, single point]
CCOc1cc2[nH]c(=O)n(CCCCCC(=O)NCc3ccco3)c(=O)c2cc1OCC | – | inconclusive [cytotoxic, single point]
O=C(NCC1CCCCC1)c1ccc2nc([C@H]3C[C@H](O)[C@@H](CO)O3)[nH]c2c1 | – | inconclusive [rising, partial curve, poor fit]
COc1ccc(C(=O)NCCCOc2cccnc2)cc1OC1CCN(C(C)=O)CC1 | – | inconclusive [rising, single point]
Cc1oc(-c2ccccc2)cc1C(=O)NCc1ccncc1 | – | inconclusive [cytotoxic, partial curve, poor fit]
O=[N+]([O-])c1ccc(N=Nc2c(Cl)cc(O)cc2Cl)cc1 | – | active: 6.51 µM
CSc1cccc(NC(=S)N2CCCN(Cc3cccc(Cl)c3)C2)c1 | – | inconclusive [cytotoxic, partial curve]
N/C(CCS(=O)(=O)c1ccc(Cl)cc1)=N\OC(=O)c1ccccc1Cl | – | inconclusive [cytotoxic, single point]
CCC(C)[C@H](NC(=O)N1CC(=O)Nc2ccccc21)C(=O)Nc1ccccc1C (stereo partly drawn) | – | inconclusive [cytotoxic, single point]
Cc1ccccc1NC(=O)C1CC(Cl)=CCC1C(=O)O (stereo not drawn) | inactive: 6.56% | –
COCCNc1nc(N)c([N+](=O)[O-])c(NCc2ccccc2)n1 | – | inconclusive [cytotoxic, partial curve]
Cc1ccc(S(=O)(=O)N/N=C\c2ccc3c(c2)OCO3)cc1C | inactive: 0.555% | –
Cc1ccc(C2NC(=S)NC3=C2C(=O)CC(C)(C)C3)cc1 (stereo not drawn) | inactive: 9.92% | –
O=C(/C=C/c1ccco1)NC(=S)NNC(=O)c1ccco1 | – | inconclusive [cytotoxic, single point]

SMILES | activity, negative = less viability | Potency
Cc1cc(C)c2nc(Cl)c(CN(Cc3ccco3)C(=O)Nc3ccccc3C)cc2c1 | – | active: 5.01 µM
Cc1sc2ncnc(N/N=C/c3ccccc3O)c2c1C | – | inconclusive [cytotoxic, full curve]
Clc1ccc(CN2CCCCCCC2)cc1 | inactive: 17.9% | –
O=C(COc1ccc(Cl)cc1)NNC(=O)c1ccc2c(=O)n3c(nc2c1)CCC3 | inactive: 4.86% | –
CCCCS(=O)(=O)NC(=O)C1(C)CCN1C(=O)C/C=C/c1ccccc1 (stereo not drawn) | inconclusive: 12.3% | –
CCCCCCCCCCCCCCC[C@@H](O)[C@@H](N)CO | – | active: 18.4 µM
Cc1ccc(S(=O)(=O)n2ccc(=O)[nH]2)cc1 | inactive: 8.53% | –
O=C(C1CC1)N1CCC(c2nc(-c3ccc(S(=O)(=O)NCC4CCCO4)cc3)no2)CC1 (stereo not drawn) | – | inconclusive [cytotoxic, single point]
C[n+]1cccc(C(=O)[O-])c1 | – | inconclusive [rising, single point]
CCOC(=O)C[C@H]1c2ccc(C(F)(F)F)cc2S(=O)(=O)N1C(C)(C)C | inactive: -1.41% | –
COc1ccc(CN2CCNC(=O)C2CC(=O)N(C)Cc2nc(C)cs2)c(OC)c1 (stereo not drawn) | inactive: 0.224% | –
Cc1ccccc1N1CCN(C(=O)c2ccc(Oc3ccc(C(F)(F)F)cn3)cc2)CC1 | inactive: 4.26% | –
Cc1ccc(C(=O)CSc2nnc(CNc3ccc(C)cc3C)n2Cc2ccco2)cc1 | – | inconclusive [cytotoxic, single point]
Cc1cc2oc(=O)cc(Cn3ncc(Cl)c(Cl)c3=O)c2cc1Cl | – | inconclusive [cytotoxic, partial curve]
CCOC(=O)c1ccc(S(=O)(=O)N2CCC(C(=O)N3CCN(c4ccccc4OC)CC3)CC2)cc1 | – | inconclusive [cytotoxic, partial curve, poor fit]
COc1ccc2c(c1)sc(N)[n+]2Cc1cc(C)cc2cccnc12 | – | inconclusive [cytotoxic, partial curve]
O=C1C(Nc2ccccc2)=C/C(=N/S(=O)(=O)c2cccs2)c2ccccc21 | – | inconclusive [cytotoxic, single point]
CC(C)C[C@H]1CNC(=O)C(=O)N1C[C@@H]1CCCN1C[C@H](Cc1ccc(O)cc1)N1C[C@H](Cc2ccccc2)N(CC2CCCCC2)C(=O)C1=O | – | inconclusive [cytotoxic, single point]
O=C(NCCc1ccc(F)cc1)Nc1ccc([N+](=O)[O-])cc1 | – | inconclusive [cytotoxic, single point]
CCOC(=O)Cc1csc(NC(=O)CCc2ccc(S(=O)(=O)N3CCOCC3)cc2)n1 | inactive: 6.55% | –
COc1c(O)ccc(/C=N/NC(=O)c2ccc3c(c2)OCCO3)c1[N+](=O)[O-] | inconclusive: -4.65% [cytotoxic] | –
O=C(/C=C/c1c[nH]c2ccccc12)c1cccc2ccccc12 | – | inconclusive [cytotoxic, single point]
